# Data: the supplement of paper PMC8728848
# The list shows a part of the results.
# What was measured:
# Assay in all cases: glycan array binding signal (z-score within array); higher = stronger binding
# Conditions in all cases: glycan notation: IUPAC condensed, linker removed
# Neu5Ac(a2-6)Gal(b1-4)Glc = target: Neu5Ac(a2-6)Gal(b1-4)Glc
# Method in brief: (§1)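 From the Consortium for Functional Glycomics database, 3228 arrays were curated, keeping only those whose protein sequence was available. Binding is given as a within-array Z-score averaged across arrays sharing a protein sequence and across linkers. Negative Z-scores can be read as non-binding.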
# [1] = target: Neu5Ac(a2-6)Gal(b1-4)GlcNAc
# Method in brief: as §1
# [2] = target: Neu5Ac(a2-6)Gal(b1-4)GlcNAc(b1-2)Man
# Method in brief: as §1
# [3] = target: Neu5Ac(a2-6)Gal(b1-4)GlcNAc(b1-2)Man(a1-3)Man(b1-4)GlcNAc(b1-4)GlcNAc
# Method in brief: as §1
# [4] = target: Neu5Ac(a2-6)Gal(b1-4)GlcNAc(b1-2)Man(a1-3)[Gal(b1-4)GlcNAc(b1-2)Man(a1-6)]Man(b1-4)GlcNAc(b1-4)GlcNAc
# Method in brief: as §1
# [5] = target: Neu5Ac(a2-6)Gal(b1-4)GlcNAc(b1-2)Man(a1-3)[GlcNAc(b1-2)Man(a1-6)]Man(b1-4)GlcNAc(b1-4)GlcNAc
# Method in brief: as §1
# [6] = target: Neu5Ac(a2-6)Gal(b1-4)GlcNAc(b1-2)Man(a1-3)[GlcNAc(b1-4)][Neu5Ac(a2-6)Gal(b1-4)GlcNAc(b1-2)Man(a1-6)]Man(b1-4)GlcNAc(b1-4)GlcNAc
# Method in brief: as §1
# [7] = target: Neu5Ac(a2-6)Gal(b1-4)GlcNAc(b1-2)Man(a1-3)[Man(a1-6)]Man(b1-4)GlcNAc(b1-4)GlcNAc
# Method in brief: as §1
# [8] = target: Neu5Ac(a2-6)Gal(b1-4)GlcNAc(b1-2)Man(a1-3)[Neu5Ac(a2-3)Gal(b1-4)GlcNAc(b1-2)Man(a1-6)]Man(b1-4)GlcNAc(b1-4)GlcNAc
# Method in brief: as §1
# [9] = target: Neu5Ac(a2-6)Gal(b1-4)GlcNAc(b1-2)Man(a1-3)[Neu5Ac(a2-6)Gal(b1-4)GlcNAc(b1-2)Man(a1-6)]Man(b1-4)GlcNAc(b1-4)GlcNAc
# Method in brief: as §1
# [10] = target: Neu5Ac(a2-6)Gal(b1-4)GlcNAc(b1-2)Man(a1-3)[Neu5Ac(a2-6)Gal(b1-4)GlcNAc(b1-2)Man(a1-6)]Man(b1-4)GlcNAc(b1-4)[Fuc(a1-6)]GlcNAc
# Method in brief: as §1
# [11] = target: Neu5Ac(a2-6)Gal(b1-4)GlcNAc(b1-2)Man(a1-6)Man(b1-4)GlcNAc(b1-4)GlcNAc
# Method in brief: as §1
# [12] = target: Neu5Ac(a2-6)Gal(b1-4)GlcNAc(b1-2)Man(a1-6)[Gal(b1-4)GlcNAc(b1-2)Man(a1-3)]Man(b1-4)GlcNAc(b1-4)GlcNAc
# Method in brief: as §1
# [13] = target: Neu5Ac(a2-6)Gal(b1-4)GlcNAc(b1-2)Man(a1-6)[GlcNAc(b1-2)Man(a1-3)]Man(b1-4)GlcNAc(b1-4)GlcNAc
# Method in brief: as §1
# [14] = target: Neu5Ac(a2-6)Gal(b1-4)GlcNAc(b1-2)Man(a1-6)[Man(a1-3)]Man(b1-4)GlcNAc(b1-4)GlcNAc
# Method in brief: as §1
# [15] = target: Neu5Ac(a2-6)Gal(b1-4)GlcNAc(b1-2)[Neu5Ac(a2-6)Gal(b1-4)GlcNAc(b1-4)]Man(a1-3)[GlcNAc(b1-4)][Neu5Ac(a2-6)Gal(b1-4)GlcNAc(b1-2)[Neu5Ac(a2-6)Gal(b1-4)GlcNAc(b1-6)]Man(a1-6)]Man(b1-4)GlcNAc(b1-4)GlcNAc
# Method in brief: as §1
# [16] = target: Neu5Ac(a2-6)Gal(b1-4)GlcNAc(b1-2)[Neu5Ac(a2-6)Gal(b1-4)GlcNAc(b1-4)]Man(a1-3)[GlcNAc(b1-4)][Neu5Ac(a2-6)Gal(b1-4)GlcNAc(b1-4)Man(a1-6)]Man(b1-4)GlcNAc(b1-4)GlcNAc
# Method in brief: as §1
# [17] = target: Neu5Ac(a2-6)Gal(b1-4)GlcNAc(b1-2)[Neu5Ac(a2-6)Gal(b1-4)GlcNAc(b1-6)]Man(a1-6)[Neu5Ac(a2-6)Gal(b1-4)GlcNAc(b1-2)Man(a1-3)][GlcNAc(b1-4)]Man(b1-4)GlcNAc(b1-4)GlcNAc
# Method in brief: as §1
# [18] = target: Neu5Ac(a2-6)Gal(b1-4)GlcNAc(b1-3)Gal(b1-3)GlcNAc
# Method in brief: as §1
# [19] = target: Neu5Ac(a2-6)Gal(b1-4)GlcNAc(b1-3)Gal(b1-4)GlcNAc
# Method in brief: as §1
# [20] = target: Neu5Ac(a2-6)Gal(b1-4)GlcNAc(b1-3)Gal(b1-4)GlcNAc(b1-2)Man(a1-3)[Neu5Ac(a2-6)Gal(b1-4)GlcNAc(b1-3)Gal(b1-4)GlcNAc(b1-2)Man(a1-6)]GalNAc
# Method in brief: as §1
# [21] = target: Neu5Ac(a2-6)Gal(b1-4)GlcNAc(b1-3)Gal(b1-4)GlcNAc(b1-3)Gal(b1-4)GlcNAc
# Method in brief: as §1
# [22] = target: Neu5Ac(a2-6)Gal(b1-4)GlcNAc(b1-3)Gal(b1-4)GlcNAc(b1-3)Gal(b1-4)GlcNAc(b1-2)Man(a1-3)[Neu5Ac(a2-6)Gal(b1-4)GlcNAc(b1-3)Gal(b1-4)GlcNAc(b1-3)Gal(b1-4)GlcNAc(b1-2)Man(a1-6)]GalNAc
# Method in brief: as §1
# [23] = target: Neu5Ac(a2-6)Gal(b1-4)GlcNAc(b1-3)Gal(b1-4)GlcNAc(b1-3)GalNAc
# Method in brief: as §1
# [24] = target: Neu5Ac(a2-6)Gal(b1-4)GlcNAc(b1-3)Gal(b1-4)GlcNAc(b1-3)[Neu5Ac(a2-6)Gal(b1-4)GlcNAc(b1-3)Gal(b1-4)GlcNAc(b1-6)]GalNAc
# Method in brief: as §1
# [25] = target: Neu5Ac(a2-6)Gal(b1-4)GlcNAc(b1-3)Gal(b1-4)GlcNAc(b1-6)[Gal(b1-3)]GalNAc
# Method in brief: as §1
# [26] = target: Neu5Ac(a2-6)Gal(b1-4)GlcNAc(b1-3)Gal(b1-4)[Fuc(a1-3)]GlcNAc(b1-3)Gal(b1-4)[Fuc(a1-3)]GlcNAc
# Method in brief: as §1
# [27] = target: Neu5Ac(a2-6)Gal(b1-4)GlcNAc(b1-3)GalNAc
# Method in brief: as §1
# [28] = target: Neu5Ac(a2-6)Gal(b1-4)GlcNAc(b1-3)[Neu5Ac(a2-6)Gal(b1-4)GlcNAc(b1-6)]GalNAc
# Method in brief: as §1
# [29] = target: Neu5Ac(a2-6)Gal(b1-4)GlcNAc(b1-6)GalNAc
# Method in brief: as §1
# [30] = target: Neu5Ac(a2-6)Gal(b1-4)GlcNAc(b1-6)[Gal(b1-3)GlcNAc(b1-3)]Gal(b1-4)Glc
# Method in brief: as §1
# [31] = target: Neu5Ac(a2-6)Gal(b1-4)GlcNAc(b1-6)[Gal(b1-3)]GalNAc
# Method in brief: as §1
# [32] = target: Neu5Ac(a2-6)Gal(b1-4)GlcNAc6S
# Method in brief: as §1
# Neu5Ac(a2-6)GalNAc = target: Neu5Ac(a2-6)GalNAc
# Method in brief: as §1
# [33] = target: Neu5Ac(a2-6)GalNAc(b1-4)GlcNAc
# Method in brief: as §1
# [34] = target: Neu5Ac(a2-6)GalNAc(b1-4)GlcNAc6S
# Method in brief: as §1
# [35] = target: Neu5Ac(a2-6)GlcNAc(b1-4)GlcNAc
# Method in brief: as §1
# [36] = target: Neu5Ac(a2-6)GlcNAc(b1-4)GlcNAc(b1-4)GlcNAc
# Method in brief: as §1
binder,measurement,setting,value
ACA (Amaranthus caudatus) (protein) MAGLPVIMCLKSNNNQKYLRYQSDNIQQYGLLQFSADKILDPLAQFEVEPSKTYDGLVHIKSRYTNKYLVRWSPNHYWITASANEPDENKSNWACTLFKPLYVEEGNMKKVRLLHVQLGHYTQNYTVGGSFVSYLFAESSQIDTGSKDVFHVIDWKSIFQFPKRYVTFKGNNGKYLGVITINQLPCLQFGYDNLNDPKVAHEMFVTSNGTICIKSTYMNKFWRLSTDDWILVDGNDPRETNEAAALFRSDVHDFNVISLLNMQKTWFIKRFTSGKPGFINCMNAATQNVDETAILEIIELGSNN,glycan array binding signal (z-score),Neu5Ac(a2-6)Gal(b1-4)Glc,0.034
same,glycan array binding signal (z-score),[1],-0.272
same,glycan array binding signal (z-score),[2],-0.035
same,glycan array binding signal (z-score),[3],-0.477
same,glycan array binding signal (z-score),[4],-0.257
same,glycan array binding signal (z-score),[5],-0.564
same,glycan array binding signal (z-score),[6],-0.58
same,glycan array binding signal (z-score),[7],-0.11
same,glycan array binding signal (z-score),[8],-0.055
same,glycan array binding signal (z-score),[9],-0.264
same,glycan array binding signal (z-score),[10],-0.109
same,glycan array binding signal (z-score),[11],-0.371
same,glycan array binding signal (z-score),[12],0.04
same,glycan array binding signal (z-score),[13],-0.358
same,glycan array binding signal (z-score),[14],-0.674
same,glycan array binding signal (z-score),[15],-0.392
same,glycan array binding signal (z-score),[16],-0.399
same,glycan array binding signal (z-score),[17],-0.582
same,glycan array binding signal (z-score),[18],-0.069
same,glycan array binding signal (z-score),[19],0.125
same,glycan array binding signal (z-score),[20],0.215
same,glycan array binding signal (z-score),[21],-0.252
same,glycan array binding signal (z-score),[22],3.17
same,glycan array binding signal (z-score),[23],-0.342
same,glycan array binding signal (z-score),[24],4.69
same,glycan array binding signal (z-score),[25],0.797
same,glycan array binding signal (z-score),[26],0.326
same,glycan array binding signal (z-score),[27],0.008
same,glycan array binding signal (z-score),[28],-0.674
same,glycan array binding signal (z-score),[29],0.57
same,glycan array binding signal (z-score),[30],-0.601
same,glycan array binding signal (z-score),[31],0.235
same,glycan array binding signal (z-score),[32],0.106
same,glycan array binding signal (z-score),Neu5Ac(a2-6)GalNAc,-0.273
same,glycan array binding signal (z-score),[33],-0.631
same,glycan array binding signal (z-score),[34],-0.207
same,glycan array binding signal (z-score),[35],-0.269
same,glycan array binding signal (z-score),[36],-0.43
